According to ChEMBL document CHEMBL4888484, “Replenishing the malaria drug discovery pipeline: Screening and hit evaluation of the MMV Hit Generation Library 1 (HGL1) against asexual blood stage Plasmodium falciparum ,using a nano luciferase reporter read-out” (2022):
Screen size: about 150,000 compounds; about 540 (0.36%) showed an effect of 50% or more. The list shows a part of the results.

tested on: Plasmodium falciparum; assay: Primary screen in NF54 nanoGlo assay, in single point, at 2uM, 72h; a lower Z score goes with more inhibition; format: functional, Erythrocyte; details: timepoint 72 hour

Row | Compound | % Inhibition | Z score
1 | O=C(O)C1CCN([C@H]2CCN(c3ccccc3)C2)CC1 | 0% | 0.05
2 | Cc1nc(C)c(-c2nc(-c3cccc(NC(=O)NC(C)C)c3)no2)s1 | -8% | 0.84
3 | COc1ccc(C(C)=O)cc1CNC(C)(C)c1nc(C)cs1 | -5% | 0.74
4 | Cc1ccccc1[C@H]1CCN(S(=O)(=O)c2c(N)noc2C)C1 | -1% | 0.1
5 | CC(=O)NC1CCCN(C(C(=O)NC2CC2)c2ccc(F)cc2)C1 (stereo not drawn) | -34% | 3.97
6 | CCC(CO)NC(=O)C(c1ccccc1)C1CC1 (stereo not drawn) | -9% | 1.25
7 | Cc1cc(N)n(CC(=O)N(C)Cc2nc(C3CC3)no2)n1 | -8% | 1.17
8 | CCCCCC(=O)N[C@@H](N1CCCCC1)C(Cl)(Cl)Cl | -7% | 0.97
9 | O=C(c1ccc(Cl)cc1F)N1CCN(c2ccc3[nH]ncc3c2)C(=O)C1 | 4% | -0.68
10 | Cc1csc(C(=O)NCc2noc3c2COCC3)n1 | -7% | 1.39
11 | CCOc1ccccc1C(CC)NC(=O)N1CCCNC(=O)C1C (stereo not drawn) | -5% | 0.68
12 | OC[C@@]1(CCc2ccccc2)CCCN(c2ncccn2)C1 | -9% | 1.12
13 | CNC(=O)c1nnsc1NC(=O)C(F)(F)F | 3% | -0.48
14 | N#Cc1cnn2cc(CCOc3ccc(F)cc3)cnc12 | -19% | 3.2
15 | COC(=O)c1ccccc1NC(=O)NCCn1nnc2cc(S(=O)(=O)N(C)C)ccc21 | 46% | -7.77
16 | COC(=O)CC[C@]1(C)NC(=O)NC1=O | 3% | -0.61
17 | O=C(CN1CCn2nc(-c3ccccc3)cc2C1=O)NC1CCCCCC1 | -1% | 0.13
18 | CC(C)CC(=O)N1CCc2ccc(OC(C)C(=O)N3CCCC3)cc2C1c1cccc(F)c1 (stereo not drawn) | -13% | 2.07
19 | COc1cccc(C(=O)N2CCN(C(=O)c3nc[nH]c3C)CC2)c1 | -18% | 2.09
20 | Cc1nc2c(c(N3CCCC3)n1)CCN(C(=O)Cc1n[nH]c(=O)[nH]1)C2 | 3% | -0.55
21 | CC(C)(C)OC(=O)NCC(NC(=O)C1CC1(Cl)Cl)C1CC1 (stereo not drawn) | 5% | -0.57
22 | O=C(Cc1ccc(F)cc1Cl)N1C[C@H]2C[C@H](O)[C@H](O)C[C@H]2C1 | -4% | 0.61
23 | C/C=C/Cc1nnc(C(=O)N2CCC[C@@](CO)(CC(C)C)C2)o1 | 0% | 0.02
24 | CCCn1nnnc1CNC1CCCCC1C(C)(C)C (stereo not drawn) | 32% | -3.63
